According to ChEMBL document CHEMBL4888484, “Replenishing the malaria drug discovery pipeline: Screening and hit evaluation of the MMV Hit Generation Library 1 (HGL1) against asexual blood stage Plasmodium falciparum ,using a nano luciferase reporter read-out” (2022):
The campaign covered roughly 150,000 compounds. About 540 (0.36%) showed an effect of 50% or more. The list shows a part of the results.

Test system: Plasmodium falciparum
Test: Primary screen in NF54 nanoGlo assay, in single point, at 2uM, 72h; a lower Z score goes with more inhibition
Assay type: functional, Erythrocyte
Conditions: timepoint 72 hour

Row | SMILES | % Inhibition [%] | Z score
1 | CCOCCCC(=O)N1CCC[C@H](c2nnc3ccccn23)C1 | -9 | 1.74
2 | O=C(Cc1cccnc1)Nc1ccc(N2CCN(C3CCCCC3)C2=O)nc1 | -9 | 1.03
3 | Cc1csc(NC(=O)CN2CCC[C@@H]2C(=O)O)n1 | -4 | 0.48
4 | CN(Cc1ccsc1)C(=O)CNC(=O)c1cccc(OC(F)F)c1 | -3 | 0.37
5 | O=C(Cc1ccc(F)cc1)Nc1cc(NC(=O)c2ccc3c(c2)OCO3)ccc1F | -4 | 0.52
6 | CC1CN(C(=O)c2cccc3sc(C(F)(F)F)nc23)C1 | -1 | 0.24
7 | CC(Oc1ccccc1)C(=O)N1CCC[C@@H]1Cn1ccnc1 (some centres undefined) | 2 | -0.48
8 | Cc1ccccc1CNc1ncnc2c1cnn2-c1ccccn1 | -7 | 1.09
9 | Cc1c(C(=O)N(C)CCn2cccn2)nnn1CC1CCCC1 | -6 | 0.79
10 | CCOC(=S)c1cc2c(nc1OCC#N)CCC2 | -14 | 1.64
11 | CCc1ccc(CN2CC[C@H](c3sccc3C)[C@@H](O)C2)nc1 | -19 | 3.74
12 | COc1nc2c(cc1CNC(=O)[C@]1(C)CCCCO1)C(=O)N(C1CCCC1)C2 | -9 | 1.82
13 | CC(C)CCOc1ccccc1CCNC(=O)N1CCC[C@H]1C(=O)N(C)C | -11 | 1.61
14 | COc1ccccc1CCC(=O)N1C[C@H]2CCC[C@@H](OC)[C@H]2C1 | -13 | 1.28
15 | CC(C)CN(C[C@H](O)c1ccccc1)S(=O)(=O)c1cccnc1 | 11 | -1.42
16 | Cc1nc(CNC(=O)CC(C)C)cs1 | 14 | -1.57
17 | CC[C@H](OC1CCCC1)C(=O)NCc1c(O)nnc(C)c1C | -5 | 1
18 | Cc1cc(=O)cc(C(=O)NC[C@H]2CC(=O)N(C(C)(C)C)C2)[nH]1 | 0 | 0.06
19 | OC1(c2csc(CN3CCOCC3)n2)CCN(Cc2ccccn2)CC1 | -9 | 1.39
20 | C[C@]12C(=O)N(CCc3ccccc3)C(=O)N1CCc1c2[nH]c2ccccc12 | -4 | 0.47
21 | Cn1nc(C(=O)Nc2nnc(CC3CCCCC3)s2)ccc1=O | -7 | 0.88

Row | SMILES | % Inhibition [%] | Z score
22 | Nc1ccnc(CNC2CCCCC2C(F)(F)F)n1 (centres undefined) | -4 | 0.64
23 | COC[C@@H]1[C@H](NS(=O)(=O)c2c(C)cccc2Cl)[C@H]2CCO[C@H]21 | -6 | 1.09
24 | Cc1nc(-c2ccco2)ccc1C(=O)N1CCOCC1(C)C | -8 | 1.55
25 | CNc1ccnc(N[C@H]2CCN(Cc3ccccc3)C2)n1 | 20 | -2.51
26 | COc1cccc(OCCOC(=O)Nc2ccc(Cl)c(Cl)c2)c1 | -1 | 0.15
27 | CC1CCN(S(=O)(=O)c2ccc(CNC(=O)c3cccc(Cl)c3)s2)CC1 | -9 | 0.89
28 | CCOC(=O)c1n[nH]c2c1COC2(C)C | -17 | 2.38
29 | COC(=O)C(C)(C)NC(=O)c1ccncc1 | -8 | 1.6
30 | CN1CC2(CCN(Cc3cn(C)c4ccccc34)CC2)C[C@H]1C(=O)N1CCOCC1 | -5 | 0.98
31 | O=C(NC[C@@](O)(c1cccs1)C1CC1)Nc1ccccc1C(F)(F)F | 6 | -0.98
32 | COc1ccc(N2C(=O)N[C@@H](CC(=O)N3CCOCC3)C2=O)cc1 | 3 | -0.36
33 | O=C(CC1CCCCC1)NC1CCN(CCN2CCOC2=O)CC1 | -5 | 0.99
34 | COC(=O)c1cccc(C(=O)N2CCCC3(CCCCCC3)C2)n1 | 35 | -3.9
35 | CCc1cnccc1[C@H](C)NC(=O)Cc1ccnc(OC)c1 | 7 | -0.92
36 | C#CCN(Cc1cccc(C)n1)C(=O)C(C)(C)c1ccc(OC)cc1 | -7 | 0.96
37 | Cc1ccc(C)c([C@@H](NC(=O)c2cc3ncccn3n2)c2cccnc2)c1 | 12 | -1.66
38 | CCc1nsc(NC2CCOC(c3cnn(C)c3)C2)n1 (centres undefined) | -14 | 1.86
39 | COc1nc2c(cc1C(=O)NCCc1cnn[nH]1)C(=O)N(C1CCCC1)C2 | -10 | 1.79
40 | COCC(=O)Nc1ccc(N(C)C)c(CN(Cc2ccco2)C(=O)C(C)(C)C)c1 | -3 | 0.55
41 | CCCC[C@H]1C(=O)N(C)CCN1C(=O)NCc1nn(CC)c2ccccc12 | 2 | -0.39
42 | Cc1c(-c2nnc(-c3ccco3)o2)oc2ccccc12 | 10 | -1.07
